Reference: PubChem BioAssay (NCATS)
The list shows a part of the results. Shown are side measurements of this screen, not its main read-out; they come without a call. The note in brackets gives the kind of curve behind each potency; many fits are weak.

Assay: qHTS drug screen for cell cycle checkpoint inhibitors in PARPi-resistant BRCA-mutant ovarian cancer cell lines. (AID 1963452)
Conditions: PEO1/OlaR viability, CellTiter-Glo luminescence, 96 h
Procedure, shortened: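 PEO1, PEO4 and PEO1/OlaR ovarian cancer cells, 600 per well, exposed 96 h at 37C to a dilution series. Viability read by CellTiter-Glo luminescence, normalized to DMSO and empty wells; activity summarized as Z-AUC.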

[1] = measured here: PEO1 parental viability
Tags give direction and shape of the fitted curve.

| SMILES | AC50 [1] | AC50 (measured here: PEO4 viability) |
| --- | --- | --- |
| Cn1ncc(Cl)c1-c1cc(C(=O)N[C@H](CN)Cc2ccc(F)c(F)c2)sc1Cl | 17.4 µM [falling, partial curve] | 24.5 µM [falling, single point] |
| O=C(/C=C/c1ccc2ccc(C(F)(F)F)cc2n1)c1ccncc1 | 3.47 µM [falling, full curve] | 4.36 µM [falling, full curve] |
| CC1(C)OCCn2c1nc1c(N3CCOCC3)nc(-c3cnc(N)nc3)nc12 | 1.74 µM [falling, full curve] | 2.19 µM [falling, full curve] |
| Cc1noc(-c2ccc(-c3ccc(C4(C(=O)O)CC4)cc3)cc2)c1NC(=O)O[C@H](C)c1ccccc1 | 13.8 µM [falling, single point] | 15.5 µM [falling, single point] |
| C/C=C1\NC(=O)[C@H]2CSSCC/C=C\[C@H](CC(=O)N[C@H](C(C)C)C(=O)N2)OC(=O)[C@H](C(C)C)NC1=O | 0.0087 µM [falling, full curve] | 0.0138 µM [falling, full curve] |
| CCN(C)S(=O)(=O)Nc1ccc(F)c(C(=O)c2c[nH]c3ncc(-c4cnc(C5CC5)nc4)cc23)c1F | 13.8 µM [falling, single point] | 24.5 µM [falling, single point] |
| CC[C@@H](C)Nc1cc(C(=O)NC2CC3CC[C@@H](C2)N3c2ccc(C(=O)C3CC3)cn2)c(C)cc1C(N)=O (stereo partly drawn) | 0.174 µM [falling, full curve] | 0.0549 µM [falling, full curve] |
| COc1cc(F)ccc1-c1ncnc(Nc2cccc(CS(C)(=N)=O)c2)n1 (stereo not drawn) | 1.23 µM [falling, full curve] | 1.38 µM [falling, full curve] |
| CCNCCS(=O)(=O)NC[C@@]1(c2ccccc2)SC(NC(=O)C(C)(C)C)=NN1C(=O)C(C)(C)C | 0.0062 µM [falling, full curve] | 0.0087 µM [falling, full curve] |
| CNC(=O)[C@H]1O[C@@H](n2cnc3c(NCc4cccc(I)c4)nc(Cl)nc32)[C@H](O)[C@@H]1O | 17.4 µM [falling, single point] | 19.5 µM [falling, single point] |
| Cc1ccc(-c2nn(C(C)(C)CNC(=O)c3ccncc3)c3ncnc(N)c23)cc1 | 7.76 µM [falling, partial curve] | 6.16 µM [falling, partial curve] |
| O=C(c1c(F)ccc(NS(=O)(=O)N2CC[C@@H](F)C2)c1F)c1c[nH]c2ncc(-c3cnc(C4CC4)nc3)cc12 | 13.8 µM [falling, single point] | 17.4 µM [falling, single point] |
| C[C@@H]1COCCN1c1cc(C2(S(C)(=N)=O)CC2)nc(-c2ccnc3[nH]ccc23)n1 (stereo partly drawn) | 0.871 µM [falling, full curve] | 0.776 µM [falling, full curve] |
| COc1cc2nc(-c3cc(F)ccc3O)nc(N[C@@H]3CNC[C@H]3C(C)(C)O)c2cc1OC | 6.16 µM [falling, partial curve] | 6.92 µM [falling, partial curve] |
| CN(C)CCCOc1ccc(-c2ccc3ncc4c(c3c2)n(C2CCOCC2)c(=O)n4C)cn1 | 4.25 µM [falling, partial curve] | 3.79 µM [falling, partial curve, poor fit] |
| COC(=O)C[C@](O)(CCCC(C)(C)O)C(=O)O[C@@H]1C(OC)=C[C@]23CCCN2CCc2cc4c(cc2[C@H]13)OCO4 | 0.195 µM [falling, full curve] | 0.0871 µM [falling, full curve] |
| O=C(Nc1ncc(SCCN2CCCC2)s1)[C@]1(c2ccc(S(=O)(=O)C3CC3)cc2)C[C@H]1C1CCCCC1 | 19.5 µM [falling, single point] | 24.5 µM [falling, single point] |
| CC(=O)c1cc2c(o1)C(=O)c1ccccc1C2=O | 1.23 µM [falling, full curve] | 0.549 µM [falling, full curve] |
| COc1cc(N2CCN(C)CC2)ccc1Nc1ncc2c(n1)N(C)c1ccccc1C(=O)N2 | 21.9 µM [falling, partial curve, poor fit] | 13.8 µM [falling, partial curve] |
